PubChem BioAssay (NCI)
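Results reflect a 48-hour exposure of cells in 96-well plates to compound at five concentrations. GI50 marks 50% less growth. The concentration for full growth arrest is given as TGI.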

System: NCI-H322M lung
Experiment: growth of human tumour cells (NCI), 48 h

Structure (SMILES)	GI50	TGI
CC(C)(C)Nc1nc2c(OCCc3ccccc3)cccn2c1-c1cccc(F)c1	8.35 µM	> 100 µM
CN(C)CCCOc1c2ccc(Cl)cc2nc2c1oc1ccc(Cl)cc12	3.66 µM	15.3 µM
